Reference: PubChem BioAssay AID1508642 (National Center for Advancing Translational Sciences (NCATS), 2021)
The campaign covered roughly 43,000 compounds. About 200 (0.47%) were called active. Not shown: some 12% with an inconclusive outcome. Calls come from the whole dose curve; as a rule, active = well fitted cell-killing curve with a large enough effect; inconclusive = small, poorly fitted or top-dose-only effect, or effect the other way; inactive = flat fitted curve, though single readings scatter. The list shows a part of the results.

Assay: Cell viability qHTS assay in S16 Pmp22-F2sN cells; note: nearly all actives have a fitted effect of over 65% in size
Conditions: S16 Pmp22-F2sN Schwann cells viability, CellTiter-Glo, 24 h; series mostly up to 57.5 µM; activity change, negative = cytotoxicity: at the top concentration
How it was run: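 S16 Pmp22-F2sN Schwann cells (500-1,000/well) in phenol-red-free DMEM with 10% FBS received 23 nL compound by pin tool for 24 h at 37 °C. Viability was then read as CellTiter-Glo luminescence after 15 min at room temperature.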
% is set by controls: 0 for no effect and ±100 for the full control effect.

Q: With `CC(C)CN(CC(C)C)c1nnc(NC(=O)Nc2cccc(C(F)(F)F)c2)s1` as the molecule, how does the “activity change, negative = cytotoxicity” value read?
A: inactive: -19.9%

Q: Which “activity change, negative = cytotoxicity” value does the source give for `CCOC(=O)c1cc(-c2ccc(C)cc2)n(CC(=O)Nc2cc(C)ccc2C)c1C` here?
A: inactive: -2.56%

Q: With `COc1ccc(-c2cc(C(F)(F)F)n3nc(C(=O)Nc4cccc(Cl)c4Cl)cc3n2)cc1OC` as the molecule, how does the “activity change, negative = cytotoxicity” value read?
A: inactive: 0.743%

Q: Which “activity change, negative = cytotoxicity” value does the source give for `CCc1ccccc1NC(=O)c1cc(S(=O)(=O)N2CCC(C)CC2)cn1C` here?
A: inactive: -2.57%

Q: With `COC(=O)Cn1c(SCCOc2ccccc2Cl)nc2ccccc21` as the molecule, how does the “activity change, negative = cytotoxicity” value read?
A: inactive: 10.3%

Q: With `O=C(CCS(=O)(=O)c1nc(-c2ccc3c(c2)OCO3)cc(C(F)(F)F)n1)Nc1ccccc1C(F)(F)F` as the molecule, how does the “activity change, negative = cytotoxicity” value read?
A: inactive: 16.1%

Q: Which “activity change, negative = cytotoxicity” value does the source give for `COc1ccc(C(C)=O)cc1CSc1nc(NCc2ccc(Cl)cc2)c2ccccc2n1` here?
A: inactive: 0.644%

Q: Which “activity change, negative = cytotoxicity” value does the source give for `Cc1cccc(C)c1NC(=O)Cn1c(=O)n(CCC(=O)NCc2ccc3c(c2)OCO3)c(=O)c2sccc21` here?
A: inactive: -1.25%

Q: For `COc1ccc(-c2cc(C(F)(F)F)n3nc(C(=O)Nc4ccc(Cl)cc4C(F)(F)F)cc3n2)cc1OC`, which “activity change, negative = cytotoxicity” value is on record?
A: inactive: 1.81%

Q: For `Cc1ccc(NC(=O)C2CCCN(c3nc4ccccc4s3)C2)c(C)c1` (stereo not drawn), which “activity change, negative = cytotoxicity” value is on record?
A: inactive: -4.55%

Q: Which “activity change, negative = cytotoxicity” value does the source give for `COc1ccc(C(=O)N2CCN(CCc3ccccn3)CC2)cc1` here?
A: inactive: 4.61%

Q: Which “activity change, negative = cytotoxicity” value does the source give for `Cc1ccc(NC(=O)c2cnc(SCC(=O)N3CCCc4ccccc43)n(C)c2=O)cc1C` here?
A: inactive: -7.89%

Q: With `Cc1oc(-c2ccccc2)nc1Cn1c(=O)cc(-c2ccccc2)c2c(C)nn(C)c21` as the molecule, how does the “activity change, negative = cytotoxicity” value read?
A: inactive: -4.13%

Q: With `Cc1ccc(-c2nn3c(C)nnc3c3ccccc23)cc1S(=O)(=O)NC(C)(C)CO` as the molecule, how does the “activity change, negative = cytotoxicity” value read?
A: inactive: 1.86%

Q: For `Cc1ccccc1NC(=O)C1CCN(S(=O)(=O)c2cccc3nonc23)CC1`, which “activity change, negative = cytotoxicity” value is on record?
A: inactive: 13.1%

Q: With `CCc1ccc(NC(=O)c2sc3nc(C)cc(C)c3c2NC(=O)c2ccccc2)cc1` as the molecule, how does the “activity change, negative = cytotoxicity” value read?
A: inactive: -1.26%

Q: For `COc1ccc(/C=C/C(=O)Nc2cccc(F)c2)cc1`, which “activity change, negative = cytotoxicity” value is on record?
A: inactive: -2.67%

Q: With `CN(C)S(=O)(=O)c1ccc2c(c1)N(CC(=O)N1CCC(C(N)=O)CC1)CCS2` as the molecule, how does the “activity change, negative = cytotoxicity” value read?
A: inactive: 11.1%

Q: With `Cc1ccc(C)c(NC(=O)Cn2cc(S(=O)(=O)c3ccc(F)cc3)c(=O)c3cc(F)ccc32)c1` as the molecule, how does the “activity change, negative = cytotoxicity” value read?
A: inactive: 3.69%

Q: For `CCOc1ccc(NC(=O)c2cc(S(=O)(=O)N3CCC(C)CC3)cn2C)cc1`, which “activity change, negative = cytotoxicity” value is on record?
A: inactive: 11.4%

Q: For `CC1CCCN(c2ncnc3c2nnn3C)C1` (stereo not drawn), which “activity change, negative = cytotoxicity” value is on record?
A: inactive: 0.426%

Q: With `O=C(Nc1ccc(C(F)(F)F)cc1)C1(c2cccs2)CCOCC1` as the molecule, how does the “activity change, negative = cytotoxicity” value read?
A: inactive: 12%

Q: For `CCCOC(=O)c1cccc(Nc2nc(C(=O)OCC)nc3ccccc23)c1`, which “activity change, negative = cytotoxicity” value is on record?
A: inactive: -27.1%

Q: Which “activity change, negative = cytotoxicity” value does the source give for `CCC1CN(C(=O)N2CCC(C(=O)NCc3ccccc3F)CC2)c2ccccc2O1` (stereo not drawn) here?
A: inactive: 0.365%

Q: Which “activity change, negative = cytotoxicity” value does the source give for `Cc1cc(C)cc(NC(=O)c2cc(S(=O)(=O)N3CCCCC3)c[nH]2)c1` here?
A: inactive: -1.81%

Q: Which “activity change, negative = cytotoxicity” value does the source give for `Cc1ccc(NC(=O)c2c(C)oc3ncnc(N4CCCCC4)c23)c(C)c1` here?
A: inactive: 14%

Q: With `CC(Oc1ccccc1F)C(=O)NCC1(N2CCOCC2)CCCCC1` (stereo not drawn) as the molecule, how does the “activity change, negative = cytotoxicity” value read?
A: inactive: -8.32%

Q: Which “activity change, negative = cytotoxicity” value does the source give for `O=C(Nc1cc(-c2ccc(F)c(F)c2)no1)c1ccccc1F` here?
A: inactive: -6.54%

Q: Which “activity change, negative = cytotoxicity” value does the source give for `Cc1cccc(N2CCN(C(=O)C3CCCN(C(=O)c4cc5sccc5n4C)C3)CC2)c1C` (stereo not drawn) here?
A: inactive: 10%

Q: Which “activity change, negative = cytotoxicity” value does the source give for `COc1ccc(N2CCN(c3ncnc4onc(C)c34)CC2)cc1` here?
A: inactive: -19.9%

Q: Which “activity change, negative = cytotoxicity” value does the source give for `CCOc1ccccc1NC(=O)C1CCN(S(=O)(=O)c2cccc3nonc23)CC1` here?
A: inactive: 0.814%

Q: Which “activity change, negative = cytotoxicity” value does the source give for `COCCNC(=O)CCn1c(=O)[nH]c2cc(OC)c(OC)cc2c1=O` here?
A: inactive: 0.687%

Q: Which “activity change, negative = cytotoxicity” value does the source give for `CC1=C(C(=O)Nc2ccc(F)cc2)C(c2ccc(N(C)C)cc2)NC(=O)N1` (stereo not drawn) here?
A: inactive: 6.02%

Q: For `CCOc1ccc(CCNC(=O)Cn2ccc3cc(S(=O)(=O)N4CCCCCC4)ccc32)cc1`, which “activity change, negative = cytotoxicity” value is on record?
A: inactive: -10.4%

Q: Which “activity change, negative = cytotoxicity” value does the source give for `CCC1CN(C(=O)C2CCN(S(=O)(=O)c3c(C)noc3/C=C/c3ccc(C)cc3)CC2)c2cc(C)ccc2O1` (stereo not drawn) here?
A: inactive: 1.74%

Q: Which “activity change, negative = cytotoxicity” value does the source give for `CCN(CC)CCCNC(=O)C(C)n1nc(C)n2c(cc3occc32)c1=O` (stereo not drawn) here?
A: inactive: 21.8%

Q: Which “activity change, negative = cytotoxicity” value does the source give for `COc1ccc(Cl)cc1NC(=O)COC(=O)CC(C)(C)CC1=NS(=O)(=O)c2ccccc2N1` here?
A: inactive: -14.7%

Q: Which “activity change, negative = cytotoxicity” value does the source give for `COc1ccc(NC(=O)CSc2nnc(-c3nonc3NC(C)=O)n2C)cc1Cl` here?
A: inactive: -7.75%

Q: For `Cc1ccc(-n2ccnc(NCCc3ccccc3)c2=O)cc1C`, which “activity change, negative = cytotoxicity” value is on record?
A: inactive: 31%

Q: Which “activity change, negative = cytotoxicity” value does the source give for `Cc1ccccc1-n1c2nc(=O)[nH]c(=O)c-2cc2c(Cl)cccc21` here?
A: inactive: -0.0098%

Q: For `Cc1ccc2[nH]c(CSc3nnc(C)s3)cc(=O)c2c1`, which “activity change, negative = cytotoxicity” value is on record?
A: inactive: -5.77%

Q: For `COc1ccc(CCNC(=O)Cn2c(=O)nc(-c3ccccc3F)c3cc(Cl)ccc32)cc1OC`, which “activity change, negative = cytotoxicity” value is on record?
A: inactive: -1.91%

Q: With `COC(=O)c1ccccc1NC(=O)CN(c1ccc(Cl)cc1)S(=O)(=O)c1ccc(OC)cc1` as the molecule, how does the “activity change, negative = cytotoxicity” value read?
A: inactive: 26.5%

Q: Which “activity change, negative = cytotoxicity” value does the source give for `CCOC(=O)c1c(NC(=O)c2ccccc2C)sc2c1CCCC2` here?
A: inactive: 6.14%

Q: For `Cc1nc(-n2nc(C)c(CCC(C)C)c2C)sc1C(=O)Nc1cccc(Cl)c1C`, which “activity change, negative = cytotoxicity” value is on record?
A: inactive: 1.53%

Q: For `O=C(CN1C(=O)COc2ccc(S(=O)(=O)N3CCCC3)cc21)NCCc1ccc(Cl)cc1`, which “activity change, negative = cytotoxicity” value is on record?
A: inactive: -0.307%

Q: Which “activity change, negative = cytotoxicity” value does the source give for `O=C(OCc1ccco1)c1ccc2c(c1)N(Cc1ccc([N+](=O)[O-])cc1)C(=O)c1ccccc1S2` here?
A: inactive: 13%

Q: For `Cn1nnnc1SCCCNCc1ccc(-c2cccc(Cl)c2)o1`, which “activity change, negative = cytotoxicity” value is on record?
A: inactive: 15%

Q: With `Brc1ccc(-c2nc(N3CCN(c4ccccc4)CC3)c3ccccc3n2)cc1` as the molecule, how does the “activity change, negative = cytotoxicity” value read?
A: inactive: -23.2%

Q: Which “activity change, negative = cytotoxicity” value does the source give for `CCOc1ccc2nc(N3CCN(C(=O)C(C)C)CC3)sc2c1` here?
A: inactive: 0.408%

Q: For `O=c1[nH]c2ccc(NS(=O)(=O)c3ccc(F)cc3)cc2s1`, which “activity change, negative = cytotoxicity” value is on record?
A: inactive: 2.43%

Q: With `COc1ccc2oc(=O)cc(CN3CCN(C(=O)c4ccccc4Br)CC3)c2c1` as the molecule, how does the “activity change, negative = cytotoxicity” value read?
A: inactive: -25.4%

Q: Which “activity change, negative = cytotoxicity” value does the source give for `Cc1ccc(SCC(=O)Nc2ccc3oc(-c4ccc(F)cc4)nc3c2)cc1` here?
A: inactive: 8.73%

Q: For `COc1ccc(C(=O)NCc2nnc(SCC(=O)Nc3ccc(C)cc3)n2-c2ccccc2)cc1`, which “activity change, negative = cytotoxicity” value is on record?
A: inactive: -1.94%

Q: For `CCc1nc2nc(C)cc(Nc3cc(Cl)ccc3OC)n2n1`, which “activity change, negative = cytotoxicity” value is on record?
A: inactive: -16.6%

Q: Which “activity change, negative = cytotoxicity” value does the source give for `CCc1ccc(CNC(=O)c2ccc(NC(=O)N3CCSc4ncccc43)cc2)cc1` here?
A: inactive: -2.11%

Q: Which “activity change, negative = cytotoxicity” value does the source give for `COc1cccc(CNC(=O)c2ccc3c(Cl)c4c(nc3c2)CCCC4)c1` here?
A: inactive: 10.9%

Q: With `Cc1cccc(N(C)C(=O)CS(=O)(=O)c2cccc3nsnc23)c1` as the molecule, how does the “activity change, negative = cytotoxicity” value read?
A: inactive: 2.72%

Q: Which “activity change, negative = cytotoxicity” value does the source give for `CC(C)NC(=O)Cn1c(=O)nc(-c2ccccc2)c2ccccc21` here?
A: inactive: 9.03%

Q: For `CCOc1ccc(CCNC(=O)c2ccc(C)c(-n3cnc4cccnc43)c2)cc1`, which “activity change, negative = cytotoxicity” value is on record?
A: inactive: 2.01%

Q: Which “activity change, negative = cytotoxicity” value does the source give for `CCn1cnc2cc(NCc3ccc(N(C)C)cc3)ccc21` here?
A: inactive: -11%

Q: With `CC(C)c1ccc(NC(=O)CN(C)S(=O)(=O)c2ccc3c(c2)n(C)c(=O)c(=O)n3C)cc1` as the molecule, how does the “activity change, negative = cytotoxicity” value read?
A: inactive: -10.8%

Q: For `CCOC(=O)N1CCN(CCC(=O)Nc2cc(C)ccc2C)CC1`, which “activity change, negative = cytotoxicity” value is on record?
A: inactive: 4.31%
